This is an account of results in publication PMC12820563, “FoxP3 forms a head-to-head dimer in vivo and stabilizes its multimerization on adjacent microsatellites”.

The list shows a part of the results.

For the experiment, the target named is T1, MBP-FoxP1dN (Mus musculus, UniProt P58462 326-579).
T1 sequence: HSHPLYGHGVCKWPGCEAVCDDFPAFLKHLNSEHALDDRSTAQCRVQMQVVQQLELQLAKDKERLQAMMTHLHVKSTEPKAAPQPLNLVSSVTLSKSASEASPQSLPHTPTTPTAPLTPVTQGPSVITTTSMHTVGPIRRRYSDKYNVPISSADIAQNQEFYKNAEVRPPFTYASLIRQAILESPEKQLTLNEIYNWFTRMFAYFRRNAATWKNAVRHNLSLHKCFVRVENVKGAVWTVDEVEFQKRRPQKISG
The experiment can be described thus: PD-seq (MBP pull-down with sequencing); 20 mM Tris-HCl pH 7.5, 100 mM NaCl, 1.5 mM MgCl2, 0.4 uM protein, 0.1 uM dsDNA library, 30 min, room temperature, amylose pull-down; high values mean tight binding. The following applies: protein: recombinant; tags: His6-MBP; chain copies: 2; dsDNA, one strand shown. The method in brief: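 In Tris pH 7.5 buffer with NaCl and MgCl2, 0.4 µM His6-MBP-tagged mouse FoxP3 or FoxP1 fragment lacking the N-terminus, from E. coli, met 0.1 µM Klenow-filled double-stranded degenerate DNA library for 30 min at room temperature. Three washes on amylose resin followed capture of the complexes, then proteinase K release of DNA, PCR barcoding and Illumina sequencing. Binding is taken as pooled-replicate reads-per-million enrichment of pull-down relative to input.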
As for “GATGATTGTTCTCCCAGCTGATGAATTTTTTTTCTCGAGTAAACAAATTTTCCTAATCTTTCTGTTCAAGCGCCATCTAC”, the binding signal was 0.756 RPM ratio (pull-down/input).
In the case of “GATGATTGTTCTCCCAGCTGATGAATTGATCTTGTCGAGTAAACAAATTTTCCTAATCTTTCTGTTCAAGCGCCATCTAC”, the binding signal is 0.926 RPM ratio (pull-down/input).
Turning to “GATGATTGTTCTCCCAGCTGATGAATTATGACGGTCGAGTAAACAAATTTTCCTAATCTTTCTGTTCAAGCGCCATCTAC”, the binding signal is 0.894 RPM ratio (pull-down/input).
In the case of “GATGATTGTTCTCCCAGCTGATGAATTACGCTCATCGAGTAAACAAATTTTCCTAATCTTTCTGTTCAAGCGCCATCTAC”, the binding signal was 1.07 RPM ratio (pull-down/input).
In the case of “GATGATTGTTCTCCCAGCTGATGAATTTATGCCTTCGAGTAAACAAATTTTCCTAATCTTTCTGTTCAAGCGCCATCTAC”, the binding signal was 1.19 RPM ratio (pull-down/input).
On to “GATGATTGTTCTCCCAGCTGATGAATTGTGGCGCTCGAGTAAACAAATTTTCCTAATCTTTCTGTTCAAGCGCCATCTAC”, for which the binding signal was 1.09 RPM ratio (pull-down/input).
In the case of “GATGATTGTTCTCCCAGCTGATGAATTGCCCCAGTCGAGTAAACAAATTTTCCTAATCTTTCTGTTCAAGCGCCATCTAC”, the binding signal was 0.909 RPM ratio (pull-down/input).
Regarding “GATGATTGTTCTCCCAGCTGATGAATTATTTCAGTCGAGTAAACAAATTTTCCTAATCTTTCTGTTCAAGCGCCATCTAC”, the binding signal was 1.04 RPM ratio (pull-down/input).
Next, “GATGATTGTTCTCCCAGCTGATGAATTTGCATTGTCGAGTAAACAAATTTTCCTAATCTTTCTGTTCAAGCGCCATCTAC”: 1.44 RPM ratio (pull-down/input); “GATGATTGTTCTCCCAGCTGATGAATTCACGAGATCGAGTAAACAAATTTTCCTAATCTTTCTGTTCAAGCGCCATCTAC”: 0.831 RPM ratio (pull-down/input); “GATGATTGTTCTCCCAGCTGATGAATTCCTTTGGTCGAGTAAACAAATTTTCCTAATCTTTCTGTTCAAGCGCCATCTAC”: 0.887 RPM ratio (pull-down/input).
For “GATGATTGTTCTCCCAGCTGATGAATTTCACTCGTCGAGTAAACAAATTTTCCTAATCTTTCTGTTCAAGCGCCATCTAC”, the binding signal is 0.833 RPM ratio (pull-down/input).
In the case of “GATGATTGTTCTCCCAGCTGATGAATTGCCTGAATCGAGTAAACAAATTTTCCTAATCTTTCTGTTCAAGCGCCATCTAC”, the binding signal is 0.981 RPM ratio (pull-down/input).
Regarding “GATGATTGTTCTCCCAGCTGATGAATTTATGAATTCGAGTAAACAAATTTTCCTAATCTTTCTGTTCAAGCGCCATCTAC”, the binding signal was 1.31 RPM ratio (pull-down/input).
For the sequence “GATGATTGTTCTCCCAGCTGATGAATTCATATGATCGAGTAAACAAATTTTCCTAATCTTTCTGTTCAAGCGCCATCTAC”, the binding signal is 0.969 RPM ratio (pull-down/input).
Regarding “GATGATTGTTCTCCCAGCTGATGAATTCGGCATGTCGAGTAAACAAATTTTCCTAATCTTTCTGTTCAAGCGCCATCTAC”, the binding signal is 0.904 RPM ratio (pull-down/input).
Next, “GATGATTGTTCTCCCAGCTGATGAATTTCGGAACTCGAGTAAACAAATTTTCCTAATCTTTCTGTTCAAGCGCCATCTAC”: 0.799 RPM ratio (pull-down/input).
In the case of “GATGATTGTTCTCCCAGCTGATGAATTTCCCCACTCGAGTAAACAAATTTTCCTAATCTTTCTGTTCAAGCGCCATCTAC”, the binding signal was 0.835 RPM ratio (pull-down/input).
In the case of “GATGATTGTTCTCCCAGCTGATGAATTTATAACTTCGAGTAAACAAATTTTCCTAATCTTTCTGTTCAAGCGCCATCTAC”, the binding signal was 1.05 RPM ratio (pull-down/input).
The figure for “GATGATTGTTCTCCCAGCTGATGAATTTGAATCTTCGAGTAAACAAATTTTCCTAATCTTTCTGTTCAAGCGCCATCTAC” is 0.914 RPM ratio (pull-down/input).
Regarding “GATGATTGTTCTCCCAGCTGATGAATTGCTGATATCGAGTAAACAAATTTTCCTAATCTTTCTGTTCAAGCGCCATCTAC”, the binding signal was 1.2 RPM ratio (pull-down/input).
Consider “GATGATTGTTCTCCCAGCTGATGAATTAACCGATTCGAGTAAACAAATTTTCCTAATCTTTCTGTTCAAGCGCCATCTAC”, for which the binding signal is 0.902 RPM ratio (pull-down/input).
Regarding “GATGATTGTTCTCCCAGCTGATGAATTGGGCCTATCGAGTAAACAAATTTTCCTAATCTTTCTGTTCAAGCGCCATCTAC”, the binding signal was 0.908 RPM ratio (pull-down/input).
For the sequence “GATGATTGTTCTCCCAGCTGATGAATTGTATACTTCGAGTAAACAAATTTTCCTAATCTTTCTGTTCAAGCGCCATCTAC”, the binding signal was 1.68 RPM ratio (pull-down/input).
Next, “GATGATTGTTCTCCCAGCTGATGAATTGATGGCATCGAGTAAACAAATTTTCCTAATCTTTCTGTTCAAGCGCCATCTAC”: 1.15 RPM ratio (pull-down/input); “GATGATTGTTCTCCCAGCTGATGAATTGCCGAGGTCGAGTAAACAAATTTTCCTAATCTTTCTGTTCAAGCGCCATCTAC”: 0.811 RPM ratio (pull-down/input).
On to “GATGATTGTTCTCCCAGCTGATGAATTAATTTGTTCGAGTAAACAAATTTTCCTAATCTTTCTGTTCAAGCGCCATCTAC”, for which the binding signal was 1.13 RPM ratio (pull-down/input).
For the sequence “GATGATTGTTCTCCCAGCTGATGAATTGACTCTCTCGAGTAAACAAATTTTCCTAATCTTTCTGTTCAAGCGCCATCTAC”, the binding signal was 0.985 RPM ratio (pull-down/input).
Regarding “GATGATTGTTCTCCCAGCTGATGAATTCTTATGGTCGAGTAAACAAATTTTCCTAATCTTTCTGTTCAAGCGCCATCTAC”, the binding signal is 0.974 RPM ratio (pull-down/input).
In the case of “GATGATTGTTCTCCCAGCTGATGAATTCTAAACATCGAGTAAACAAATTTTCCTAATCTTTCTGTTCAAGCGCCATCTAC”, the binding signal is 2.07 RPM ratio (pull-down/input).
As to “GATGATTGTTCTCCCAGCTGATGAATTTACATCATCGAGTAAACAAATTTTCCTAATCTTTCTGTTCAAGCGCCATCTAC”, the binding signal was 1.5 RPM ratio (pull-down/input).
